Data: PubChem BioAssay AID894 (National Center for Advancing Translational Sciences (NCATS), 2007)
Out of some 150,000 compounds screened, about 6,500 (4.3%) were called active. The inconclusive results got no clear call from the source; some entries with a clear call stand among them for comparison. The call rests on the fitted dose curve; in most records, active means well fitted inhibition curve with a large enough effect (not every such curve was filed as active); inconclusive means small, poorly fitted or top-dose-only effect, or another doubt; inactive means no such curve, though single readings can be large or run the other way. No potency is given beside an inconclusive call; the fits are too rough. Some structures have more than one record in an assay (separate samples or runs), and their calls can disagree.

Target: 15-hydroxyprostaglandin dehydrogenase [NAD(+)] (Homo sapiens) (UniProt P15428)
Test: qHTS Assay for Inhibitors of HPGD (15-Hydroxyprostaglandin Dehydrogenase)
Details: purified HPGD, NADH fluorescence kinetic, PGE2 substrate; activity change, negative = inhibition: hits give low values
In short: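 NADH formation kinetics: reaction with 30 uM PGE2 and 1 mM NAD+ (final), 20 nM enzyme, Tris-HCl pH 8 with Tween 20, after 15 min compound preincubation at room temperature. Fluorescence change, last versus first of five reads.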
On the % scale 0 is the no-effect control and ±100 the full control effect; potency means the concentration at half of the fitted maximal effect; tags describe the fitted curve by direction and shape.

UniProt P15428, sequence (P15428 whole entry, looked up): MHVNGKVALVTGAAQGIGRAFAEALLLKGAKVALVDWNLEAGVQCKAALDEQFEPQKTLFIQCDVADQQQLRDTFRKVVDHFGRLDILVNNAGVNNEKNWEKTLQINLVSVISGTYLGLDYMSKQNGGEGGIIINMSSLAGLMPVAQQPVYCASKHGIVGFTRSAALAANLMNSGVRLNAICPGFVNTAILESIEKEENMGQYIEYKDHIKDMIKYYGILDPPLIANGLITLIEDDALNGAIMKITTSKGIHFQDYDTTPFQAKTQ

For Cc1ccc(C(=O)NC(O)C(Cl)Cl)cc1 (stereo unspecified), which Potency is on record?
Its Potency is active: 25.1 µM.

How did the activity change, negative = inhibition turn out when O=C(N/N=C/c1ccccn1)c1cc(-c2cccc3ccccc23)n[nH]1 was run?
Its activity change, negative = inhibition is inactive: -21.7%.

For COc1ccc(-c2cnc(SCC(=O)Nc3nc(C(C)(C)C)cs3)n2Cc2ccco2)cc1, which activity change, negative = inhibition is on record?
Its activity change, negative = inhibition is inactive: -10.9%.

Which activity change, negative = inhibition does the source give for COc1cc(C(c2sc3nc(C)nn3c2O)N2CC(C)OC(C)C2)cc(OC)c1OC (stereo unspecified) here?
Its activity change, negative = inhibition is inactive: -10.5%.

How did the activity change, negative = inhibition turn out when CCOC(=O)c1c(C)[nH]c(=S)c(C#N)c1-c1ccccc1 was run?
Its activity change, negative = inhibition is inactive: -27.3%.

With Oc1ccc2ccccc2c1CNc1cnc2ccccc2c1 as the molecule, how does the Potency read?
The Potency was inconclusive [inhibitor, partial curve].

N/C(=N\OC(=O)c1ccc(Cl)cc1Cl)c1ccc(Cl)cc1 was tested. Which Potency did it give?
Its Potency is active: 5.01 µM.

How did the Potency turn out when COc1ccccc1OCC(=O)NCc1ccco1 was run?
Its Potency is inconclusive [inhibitor, single point].

COc1ccc(OC)c(NC(=O)CSc2nnnn2-c2ccc3c(c2)OCO3)c1 was tested. Which activity change, negative = inhibition did it give?
The activity change, negative = inhibition was inactive: -7.65%.

With O=C(Nc1nc(-c2cccs2)c(-c2cccs2)s1)C1(c2ccccc2)CC1 as the molecule, how does the Potency read?
The Potency was inconclusive [inhibitor, single point].

With CCOC(=O)COc1ccc2c(c1)C(=O)CC(C)(C)O2 as the molecule, how does the Potency read?
Its Potency is inconclusive [inhibitor, partial curve].

CC1SC(=NC(=O)C(C)N2C(=O)c3ccccc3C2=O)NC1=O (stereo unspecified) was tested. Which activity change, negative = inhibition did it give?
The activity change, negative = inhibition was inactive: -17.5%.

With CCN1C=C(C(=O)OC)C(c2cccc(C)c2)C(C(=O)OC)=C1 as the molecule, how does the Potency read?
The Potency was inconclusive [inhibitor, partial curve].

For CCCCC(CC)Cn1c(N)c(C#N)c2nc3ccccc3nc21 (stereo unspecified), which Potency is on record?
The Potency was inconclusive [inhibitor, partial curve].

For COc1ccc(/C=C/C(=O)c2ccccc2O)cc1CN1CCOCC1, which activity change, negative = inhibition is on record?
The activity change, negative = inhibition was inactive: -0.606%.

How did the activity change, negative = inhibition turn out when CNS(=O)(=O)c1cccc(C(=O)Nc2cccnc2)c1 was run?
Its activity change, negative = inhibition is inactive: -11.1%.

With CCc1oc2ccccc2c1C(=O)c1cc(Br)c(O)c(Br)c1 as the molecule, how does the Potency read?
The Potency was active: 17.8 µM.

For CCCCNC(=O)CSc1nc2ccccc2n1S(=O)(=O)c1ccc(Cl)cc1, which Potency is on record?
The Potency was active: 2 µM.

For CCN(CC)CCCCn1c(-c2ccccc2)nc2c(NCc3ccccc3)nc(C)nc21, which Potency is on record?
The Potency was inconclusive [inhibitor, partial curve].

How did the Potency turn out when Cc1nc2c(=O)n(C)c(=O)n(C)c2nc1Cl was run?
Its Potency is inconclusive [inhibitor, partial curve].

How did the Potency turn out when COc1ccc(N(Cc2cc3cc(OC)ccc3[nH]c2=O)S(C)(=O)=O)cc1 was run?
The Potency was inconclusive [inhibitor, partial curve].

With COCCn1cc(C(=O)NCCCN2CCC(C)CC2)c2c3ccccc3n(C)c2c1=O as the molecule, how does the Potency read?
Its Potency is inconclusive [inhibitor, partial curve].

For c1ccc2oc(C3=NCCN3)cc2c1, which Potency is on record?
The Potency was inconclusive [inhibitor, single point].

COc1ccc(C(C)=O)cc1CSc1nnc(Nc2ccccc2)s1 was tested. Which Potency did it give?
The Potency was active: 25.1 µM.

For CCOC(=O)c1c(NC(=O)CN2CCCCC2)sc2c1CCCC2O (stereo unspecified), which Potency is on record?
Its Potency is inconclusive [inhibitor, single point].

Which Potency does the source give for CCOC(=O)c1c(-c2cccc(C)c2)csc1NC(=O)c1c(-c2ccccc2)noc1C here?
The Potency was inconclusive [inhibitor, partial curve].

CCc1ccc(/C=C2/SC(=S)N(CC(=O)Nc3nc4ccccc4s3)C2=O)cc1 was tested. Which activity change, negative = inhibition did it give?
The activity change, negative = inhibition was inactive: -26.1%.

How did the Potency turn out when O=C(O)c1cccc(-c2nc3ccccc3[nH]2)c1 was run?
The Potency was inconclusive [inhibitor, partial curve].

For Cc1cccc(CNc2ncnc3ccc(-c4ccccc4C#N)cc23)c1, which Potency is on record?
Its Potency is inconclusive [inhibitor, partial curve].

With CCOc1ccccc1C(=O)NCc1ccc2c(c1)OCO2 as the molecule, how does the Potency read?
Its Potency is active: 3.98 µM.

Which Potency does the source give for CN(C)c1cccc(C(=O)OCc2cc(=O)oc3cc(O)ccc23)c1 here?
The Potency was inconclusive [inhibitor, partial curve].

Which Potency does the source give for CCN(CC)CCCCn1c(-c2ccccc2)nc2c(N(CCOC)CCOC)nc(C)nc21 here?
The Potency was inconclusive [inhibitor, partial curve].

CCCCOc1ccc(-c2c(C#N)c(N)nc(SCC(N)=O)c2C#N)cc1 was tested. Which Potency did it give?
The Potency was active: 28.2 µM.

COc1ccccc1NC(=O)CSc1nnc(COc2ccc(Cl)cc2)n1Cc1ccco1 was tested. Which Potency did it give?
The Potency was inconclusive [inhibitor, single point].

Which Potency does the source give for CCOC(=O)Cn1c(-c2ccccn2)nc2ccccc21 here?
The Potency was inconclusive [inhibitor, single point].

CC(=O)Nc1ccc(C(=O)NCCc2ccccc2)cc1 was tested. Which Potency did it give?
The Potency was inconclusive [inhibitor, partial curve].

Which activity change, negative = inhibition does the source give for COc1ccc(N=C2S/C(=C\c3cc(C)n(C)c3C)C(=O)N2CC(C)C)cc1 here?
Its activity change, negative = inhibition is inactive: -23.2%.

Which Potency does the source give for CC1=NN(c2ccccc2)C(=O)/C1=C/c1cccs1 here?
Its Potency is active: 31.6 µM.

CCOc1ccc(C2C(C#N)=C(N)SC(N)=C2C#N)cc1OC was tested. Which Potency did it give?
Its Potency is active: 25.1 µM.

How did the activity change, negative = inhibition turn out when Cc1ccc(-c2nnc3n2N=C(c2ccc(Br)cc2)CS3)cc1 was run?
The activity change, negative = inhibition was inactive: -12.9%.

With CC(=O)c1c(C)nc(-c2ccc(Cl)cc2)nc1NC(=O)C(C)C as the molecule, how does the Potency read?
Its Potency is inconclusive [inhibitor, single point].

Which Potency does the source give for O=C(Cn1nnc(-c2ccccc2NC(=O)c2cccs2)n1)Nc1ccccc1 here?
Its Potency is inconclusive [inhibitor, partial curve].

Which activity change, negative = inhibition does the source give for CCOC(=O)C1(C)NC(c2ccc(OC)cc2OC)C2C(=O)N(c3cccc(OC)c3)C(=O)C21 (stereo unspecified) here?
Its activity change, negative = inhibition is inactive: -1.13%.

With O=C(COC(=O)c1ccc2ccccc2n1)Nc1ncc(C(F)(F)F)cc1Cl as the molecule, how does the activity change, negative = inhibition read?
The activity change, negative = inhibition was inactive: -4.39%.

For COC(=O)CCCC1=CC2=C(c3ccccc3)C(=O)C(C)(OC(=O)C3CCCC3)C(=O)C2=CN1CCc1ccccn1 (stereo unspecified), which activity change, negative = inhibition is on record?
The activity change, negative = inhibition was inactive: -1.31%.

With O=C(CCCCl)Oc1ccc2cc(-c3ccc4ccccc4n3)c(=O)oc2c1 as the molecule, how does the Potency read?
Its Potency is inconclusive [inhibitor, partial curve].

With Oc1ccccc1-c1cc(-c2ccccc2)no1 as the molecule, how does the Potency read?
The Potency was active: 1.58 µM.

With O=c1cc(-c2ccco2)oc2ccc(Cl)cc12 as the molecule, how does the Potency read?
Its Potency is inconclusive [inhibitor, single point].

For COc1ccc(Oc2ncc3nc(-c4ccc(Cl)cc4)c(=O)n(CCC#N)c3n2)cc1, which Potency is on record?
Its Potency is inconclusive [inhibitor, partial curve].

How did the Potency turn out when CN(C)c1ncc(S(=O)(=O)c2ccc(Cl)cc2)c(-c2ccc(Cl)cc2Cl)n1 was run?
Its Potency is inconclusive [inhibitor, single point].

Which Potency does the source give for CCOc1cc(S(=O)(=O)NCc2ccco2)c(OCC)cc1-n1cnnn1 here?
The Potency was inconclusive [inhibitor, partial curve].

How did the Potency turn out when Cc1cc(C)n2cc(CSCc3ccco3)nc2n1 was run?
The Potency was inconclusive [inhibitor, partial curve].

Which Potency does the source give for CCCNC(=O)c1ccc(-c2nc3ccccc3s2)s1 here?
The Potency was inconclusive [inhibitor, partial curve].

With Cc1c(C(=O)O)c(=S)sn1CCOc1ccccc1 as the molecule, how does the Potency read?
Its Potency is active: 17.8 µM.

Which activity change, negative = inhibition does the source give for CCCN1C(=O)C2(/C(=C(\O)c3ccc4c(c3)OCCO4)C(=O)C(=O)N2CCCOC)c2ccccc21 (stereo unspecified) here?
The activity change, negative = inhibition was inactive: -11.1%.

With COC(=O)Cc1c(C)c2ccc(OCc3nn[nH]n3)cc2oc1=O as the molecule, how does the Potency read?
The Potency was inconclusive [inhibitor, partial curve].

Which Potency does the source give for CN1CCN(CC(=O)Nc2nnc(-c3cccs3)s2)CC1 here?
The Potency was inconclusive [inhibitor, single point].

Which Potency does the source give for CCN(C(=S)NC(=O)CCc1ccccc1)c1ccccc1 here?
The Potency was inconclusive [inhibitor, single point].

Which activity change, negative = inhibition does the source give for Cc1cc(=O)n2nc(N3CCCC(C(=O)N4CCN(c5ccccc5)CC4)C3)sc2n1 (stereo unspecified) here?
The activity change, negative = inhibition was inactive: -3.4%.

With CCc1nnc(NC(=O)CSc2nnc(-c3ccncc3)n2C)s1 as the molecule, how does the activity change, negative = inhibition read?
The activity change, negative = inhibition was inactive: -8.53%.

How did the Potency turn out when Cc1cccc2cc(CN(Cc3ccco3)C(c3nnnn3CCc3ccccc3)C(C)C)c(=O)[nH]c12 (stereo unspecified) was run?
Its Potency is inconclusive [inhibitor, single point].

For COc1ccc(NC(=O)CSc2nnc(-c3ccccc3C)n2N)cc1, which Potency is on record?
The Potency was inconclusive [inhibitor, single point].

How did the activity change, negative = inhibition turn out when CCC(C)C(=O)N1c2ccccc2C(=C2SC(C(=O)OC)=C(C(=O)OC)S2)C(=S)C1(C)C (stereo unspecified) was run?
The activity change, negative = inhibition was inactive: -17.6%.

With COc1ccc(C)cc1NC(=O)c1cc2ccccc2o1 as the molecule, how does the Potency read?
Its Potency is inconclusive [inhibitor, single point].

With COc1ccccc1NC(=O)CSCc1nc2ccccc2[nH]1 as the molecule, how does the activity change, negative = inhibition read?
The activity change, negative = inhibition was inactive: -1.27%.

COC(=O)CC1C(C)(C)C(OC(C)=O)[C@@]2(O)C=C3C4CC(=O)OC(c5ccoc5)[C@]4(C)CCC3[C@@]1(C)C2=O (stereo partly specified) was tested. Which activity change, negative = inhibition did it give?
Its activity change, negative = inhibition is inactive: -0.484%.

With Cc1ccc(NC(=O)CSC2=C(C#N)C(c3ccc4c(c3)OCO4)C3=C(CCCC3=O)N2)c(C)c1 (stereo unspecified) as the molecule, how does the Potency read?
Its Potency is inconclusive [inhibitor, partial curve].

How did the activity change, negative = inhibition turn out when Cc1cccc(NC(=S)NCC23C=CC(O2)C2C(=O)N(c4ccc(Cl)cc4)C(=O)C23)c1 (stereo unspecified) was run?
The activity change, negative = inhibition was inactive: -27.2%.

With CCc1cc2c3c(c1)C1(C(=O)N3C(C)(C)CC2C)C(C#N)=C(N)N2C(=C1C#N)Nc1ccccc12 (stereo unspecified) as the molecule, how does the Potency read?
The Potency was inconclusive [inhibitor, partial curve, poor fit].

Cc1ccc(C2c3c(oc4ccc(Cl)cc4c3=O)C(=O)N2CCCN2CCOCC2)o1 (stereo unspecified) was tested. Which Potency did it give?
Its Potency is inconclusive [inhibitor, partial curve].

For COc1ccc(NC(=O)c2ccc(CNc3c(NC4CCCCC4)c(=O)c3=O)cc2)cc1OC, which Potency is on record?
Its Potency is active: 17.8 µM.
